We go through 37 sequences from paper PMC5892938.

The other results are listed elsewhere or left out. At the low end of the ranking, values are background and their order means little.

The test deals with GST-SBP-SLBP (stem-loop binding protein) (UniProt Q14493). As to the kind of experiment: targeted RNA Bind-n-Seq.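 Further: DESeq read counts versus GST-SBP nonspecific binding control pulldown.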 To be noted: RBNS binding buffer: 25 mM Tris pH 7.5, 150 mM KCl, 3 mM MgCl2, 0.1% Tween, 0.5 mg/mL BSA, 1 mM DTT; 27 nM protein, 750 pM RNA pool; temperature not stated; high values mean tight binding.
For the sequence “GGUCACGUCUCAAUCAACUCUUAAGAGGGGGGGAAAACCCCUUUACCCUCAUUCUCAACAGCUCGCAGUCAAG”, the binding signal (log2 fold change) is 0.26.

“GGUCACGUCUCAAUCAACUCUACUCCCAGGGAAAGCCCUGGUUAACUCAACAGCUCGCAGUCAAG”: the binding signal (log2 fold change) was -0.236.

Take “GGUCACGUCUCAAUCAACUCAGUUCCAGGAGUUUUCUCCUGUUUAUUCAACAGCUCGCAGUCAAG”: the binding signal (log2 fold change) is -0.0683.

Regarding “GGUCACGUCUCAAUCAACUCUUCUUCAGGAGUUUUCUCCUGCAAACUCAACAGCUCGCAGUCAAG”, the binding signal (log2 fold change) worked out at 0.277.

As to “GGUCACGUCUCAAUCAACUCAACGCCAGGAGUUUUCUCCUGUUUUCUCAACAGCUCGCAGUCAAG”, the binding signal (log2 fold change) was -0.121.

For the sequence “GGUCACGUCUCAAUCAACUCUUUCGAGGGGGGGAAAACCCCUUUACCCUCUACAUCAACAGCUCGCAGUCAAG”, the binding signal (log2 fold change) was -0.492.

Consider “GGUCACGUCUCAAUCAACUCUUCAGAGGGGGGGAAAACCCCUUUACCCUCAUAAUCAACAGCUCGCAGUCAAG”, for which the binding signal (log2 fold change) is -0.114.

Turning to “GGUCACGUCUCAAUCAACUCAUAAGAGGGGGGGAAAACCCCUUUGCCCUCAUCCUCAACAGCUCGCAGUCAAG”, the binding signal (log2 fold change) was 0.0533.

As to “GGUCACGUCUCAAUCAACUCAUUUCCCAGGGAAAUCCCUGGUAUUCUCAACAGCUCGCAGUCAAG”, the binding signal (log2 fold change) turned out to be 0.173.

On to “GGUCACGUCUCAAUCAACUCUAGUCCCAGGGAAACCCCUGGCAAUUUCAACAGCUCGCAGUCAAG”, for which the binding signal (log2 fold change) was -0.0101.

Turning to “GGUCACGUCUCAAUCAACUCAAGUCCCAGGGAAAUCCCUGGCAAUUUCAACAGCUCGCAGUCAAG”, the binding signal (log2 fold change) is -0.124.

Consider “GGUCACGUCUCAAUCAACUCAUCUUCCAGGGAAAACCCUGGCAAAUUCAACAGCUCGCAGUCAAG”, for which the binding signal (log2 fold change) is 0.0663.

As to “GGUCACGUCUCAAUCAACUCUAUCGCAGGAGUUUUCUCCUGGUUUCUCAACAGCUCGCAGUCAAG”, the binding signal (log2 fold change) amounted to 0.141.

For the sequence “GGUCACGUCUCAAUCAACUCUAUCCCCAGGGAAAUCCCUGGUAUUCUCAACAGCUCGCAGUCAAG”, the binding signal (log2 fold change) is -0.267.

With “GGUCACGUCUCAAUCAACUCACACGAGGGGGGGAAAACCCCUUUACCCUCAUCUUCAACAGCUCGCAGUCAAG”, the binding signal (log2 fold change) is -0.0529.

Take “GGUCACGUCUCAAUCAACUCAUCGCCAGGAGUUUACUCCUGCAUUUUCAACAGCUCGCAGUCAAG”: the binding signal (log2 fold change) stood at 0.0293.

For “GGUCACGUCUCAAUCAACUCUUCCCCCAGGGAAACCCCUGGUUUUUUCAACAGCUCGCAGUCAAG”, the binding signal (log2 fold change) was -0.186.

With “GGUCACGUCUCAAUCAACUCAACUCCAGGAGUUUGCUCCUGUAUUCUCAACAGCUCGCAGUCAAG”, the binding signal (log2 fold change) was 0.00259.

As to “GGUCACGUCUCAAUCAACUCAUCGUCAGGAGUUUCCUCCUGUAUUUUCAACAGCUCGCAGUCAAG”, the binding signal (log2 fold change) was -0.0746.

As to “GGUCACGUCUCAAUCAACUCUACUCCCAGGGAAAACCCUGGUUUUUUCAACAGCUCGCAGUCAAG”, the binding signal (log2 fold change) was -0.0799.

As for “GGUCACGUCUCAAUCAACUCUAUCUCAGGAGUUUCCUCCUGCAUUUUCAACAGCUCGCAGUCAAG”, the binding signal (log2 fold change) is 0.0355.

For the sequence “GGUCACGUCUCAAUCAACUCUUUUUCAGGAGUUUUCUCCUGCAAUUUCAACAGCUCGCAGUCAAG”, the binding signal (log2 fold change) was 0.065.

Regarding “GGUCACGUCUCAAUCAACUCAAUCUCCAGGGAAAUCCCUGGCUUACUCAACAGCUCGCAGUCAAG”, the binding signal (log2 fold change) is -0.119.

For the sequence “GGUCACGUCUCAAUCAACUCUAAAGAGGGGGGGAAAACCCCUUUGCCCUCAUUCUCAACAGCUCGCAGUCAAG”, the binding signal (log2 fold change) was -0.168.

On to “GGUCACGUCUCAAUCAACUCAAUCGAGGGGGGGAAAACCCCUUUACCCUCAACAUCAACAGCUCGCAGUCAAG”, for which the binding signal (log2 fold change) is -0.244.

In the case of “GGUCACGUCUCAAUCAACUCAUUUCCCAGGGAAACCCCUGGCUUUUUCAACAGCUCGCAGUCAAG”, the binding signal (log2 fold change) was -0.0992.

For “GGUCACGUCUCAAUCAACUCUAUUUCCAGGGAAAGCCCUGGUUUAUUCAACAGCUCGCAGUCAAG”, the binding signal (log2 fold change) amounted to 0.0194.

As to “GGUCACGUCUCAAUCAACUCAACUCCAGGAGUUUUCUCCUGCUAUUUCAACAGCUCGCAGUCAAG”, the binding signal (log2 fold change) is -0.194.

As for “GGUCACGUCUCAAUCAACUCAGUCCCAGGAGUUUACUCCUGCUAUUUCAACAGCUCGCAGUCAAG”, the binding signal (log2 fold change) was -0.14.

Consider “GGUCACGUCUCAAUCAACUCUUUUUCCAGGGAAAUCCCUGGUAGUCUCAACAGCUCGCAGUCAAG”, for which the binding signal (log2 fold change) amounted to 0.088.

With “GGUCACGUCUCAAUCAACUCUAUUUCCAGGGAAACCCCUGGUUUUUUCAACAGCUCGCAGUCAAG”, the binding signal (log2 fold change) is -0.229.

Regarding “GGUCACGUCUCAAUCAACUCAUCCUCCAGGGAAAUCCCUGGUAAACUCAACAGCUCGCAGUCAAG”, the binding signal (log2 fold change) came out at 0.152.

Take “GGUCACGUCUCAAUCAACUCUUAAGAGGGGGGGAAAACCCCUUUGCCCUCAUCUUCAACAGCUCGCAGUCAAG”: the binding signal (log2 fold change) was -0.216.

For “GGUCACGUCUCAAUCAACUCAUUCCCAGGAGUUUACUCCUGUAUACUCAACAGCUCGCAGUCAAG”, the binding signal (log2 fold change) is -0.0371.

With “GGUCACGUCUCAAUCAACUCUUCGUCCAGGGAAAUCCCUGGUAAUUUCAACAGCUCGCAGUCAAG”, the binding signal (log2 fold change) is -0.0121.

In the case of “GGUCACGUCUCAAUCAACUCAGUCUCAGGAGUUUACUCCUGUAUAUUCAACAGCUCGCAGUCAAG”, the binding signal (log2 fold change) is -0.0939.

As to “GGUCACGUCUCAAUCAACUCUUCUCCCAGGGAAAUCCCUGGUAUUCUCAACAGCUCGCAGUCAAG”, the binding signal (log2 fold change) is 0.0101.
